Data on one molecule can be found in article PMC6526509 (Science signaling, 2018).

The assay deals with T1, GST-tagged Ric-8A, unphosphorylated (rat, UniProt Q80ZG1 1-530).
T1 sequence (looked up): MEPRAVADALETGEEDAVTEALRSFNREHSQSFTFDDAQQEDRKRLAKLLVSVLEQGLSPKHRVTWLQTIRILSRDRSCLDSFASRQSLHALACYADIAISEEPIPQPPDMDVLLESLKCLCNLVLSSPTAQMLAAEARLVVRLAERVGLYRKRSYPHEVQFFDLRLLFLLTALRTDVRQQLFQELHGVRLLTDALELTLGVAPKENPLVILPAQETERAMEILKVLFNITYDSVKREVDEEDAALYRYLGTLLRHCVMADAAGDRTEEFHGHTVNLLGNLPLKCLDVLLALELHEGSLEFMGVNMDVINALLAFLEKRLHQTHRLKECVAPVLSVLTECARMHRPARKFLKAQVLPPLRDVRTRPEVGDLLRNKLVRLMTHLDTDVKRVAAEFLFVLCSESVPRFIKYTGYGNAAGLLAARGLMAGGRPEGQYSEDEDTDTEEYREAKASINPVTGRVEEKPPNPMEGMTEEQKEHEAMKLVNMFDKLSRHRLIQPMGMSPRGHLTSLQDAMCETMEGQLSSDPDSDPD
The experiment in a line: flow cytometry protein interaction assay. (In general: Flow cytometry measures light scatter and fluorescence of single cells or particles in a stream.)

B1: Gαi1 fused to cyan fluorescent protein (Gαi1-CFP) (natural protein)
chain: not shown
B1: the affinity, expressed as Kd, was 596 ± 205 nM.
